The values below come from article PMC4336329 (PLoS ONE, 2015).

SMILES strings stand for the structures. The campaign covered roughly 310,000 compounds. About 14,000 (4.5%) showed an effect of 50% or more. Effects have a minus sign here. This is one part of the list.
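Note: peak tail current of the secondary pulse compared with the same well before compound.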

The assay deals with human ether-à-go-go-related gene (hERG) potassium channel (human, UniProt Q12809). Nature of the assay: primary screen, population patch clamp on CHO cells stably expressing hERG.
Chain of human ether-à-go-go-related gene (hERG) potassium channel (Q12809 whole entry, looked up): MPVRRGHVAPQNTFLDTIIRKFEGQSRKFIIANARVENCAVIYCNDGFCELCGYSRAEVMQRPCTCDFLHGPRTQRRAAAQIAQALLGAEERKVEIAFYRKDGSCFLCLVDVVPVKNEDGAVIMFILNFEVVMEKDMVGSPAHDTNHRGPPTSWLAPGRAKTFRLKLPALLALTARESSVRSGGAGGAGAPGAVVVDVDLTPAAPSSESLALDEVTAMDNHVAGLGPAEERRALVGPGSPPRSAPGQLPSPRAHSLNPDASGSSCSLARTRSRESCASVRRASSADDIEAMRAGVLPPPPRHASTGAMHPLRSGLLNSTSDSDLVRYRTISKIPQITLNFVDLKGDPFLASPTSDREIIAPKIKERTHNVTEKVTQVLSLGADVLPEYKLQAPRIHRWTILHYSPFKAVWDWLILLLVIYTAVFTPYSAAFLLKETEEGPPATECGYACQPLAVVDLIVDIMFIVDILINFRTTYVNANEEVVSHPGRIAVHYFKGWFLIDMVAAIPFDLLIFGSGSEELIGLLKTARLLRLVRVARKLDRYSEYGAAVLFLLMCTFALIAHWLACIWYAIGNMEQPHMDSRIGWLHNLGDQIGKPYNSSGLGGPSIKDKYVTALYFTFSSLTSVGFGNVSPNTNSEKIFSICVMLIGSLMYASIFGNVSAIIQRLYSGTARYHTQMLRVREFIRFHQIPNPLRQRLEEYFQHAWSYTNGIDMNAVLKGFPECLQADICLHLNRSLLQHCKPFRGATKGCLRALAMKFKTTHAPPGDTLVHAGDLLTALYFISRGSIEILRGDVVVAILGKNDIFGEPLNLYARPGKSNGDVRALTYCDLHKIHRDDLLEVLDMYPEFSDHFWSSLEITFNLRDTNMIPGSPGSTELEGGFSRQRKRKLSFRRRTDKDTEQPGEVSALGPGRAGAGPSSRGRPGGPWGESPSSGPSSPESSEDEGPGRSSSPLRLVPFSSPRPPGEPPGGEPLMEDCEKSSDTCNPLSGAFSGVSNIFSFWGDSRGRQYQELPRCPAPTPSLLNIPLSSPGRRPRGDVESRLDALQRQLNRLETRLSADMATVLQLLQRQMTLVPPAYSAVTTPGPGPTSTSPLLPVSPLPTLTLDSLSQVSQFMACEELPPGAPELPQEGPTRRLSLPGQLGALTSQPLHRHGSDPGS
As for `O=C(CN1C(=O)C2CC=CCC2C1=O)Nc1nnc(SCc2c(Cl)cccc2Cl)s1` (stereo not drawn), the “hERG current change (%, negative = inhibition) at 10uM” value is on record as 6.1%.

Take `O=c1ccc(C(F)(F)F)cn1Cc1cc(=O)n2ccsc2n1`: the “hERG current change (%, negative = inhibition) at 10uM” value is 35.4%.

Consider `CC(=O)C1C(c2ccc(C)cc2)c2c(noc2C)CC1(C)O` (stereo not drawn), for which the “hERG current change (%, negative = inhibition) at 10uM” value was 1.86%.

In the case of `CC(=O)COC(=O)C1CCN(S(=O)(=O)c2cc([N+](=O)[O-])ccc2Cl)CC1`, the “hERG current change (%, negative = inhibition) at 10uM” value is given as -51.8%.

Take `COCCNC(=O)CN(c1ccc(OC)c(OC)c1)S(=O)(=O)c1ccc(C)cc1`: the “hERG current change (%, negative = inhibition) at 10uM” value was -8.68%.

For `CCC(C)NC(=O)CN1C(=O)NC2(CCOc3ccccc32)C1=O` (stereo not drawn), the “hERG current change (%, negative = inhibition) at 10uM” value was -9.56%.

With `O=C(c1cc(-c2ccccc2Cl)nc2ccccc12)N1CCN(c2ccccc2O)CC1`, the “hERG current change (%, negative = inhibition) at 10uM” value was -22.6%.

As for `CCC(=O)Nc1ccc2c(c1)nc(CCN1CCN(c3ccccn3)CC1)n2C`, the “hERG current change (%, negative = inhibition) at 10uM” value is -18.3%.

With `CSC(=CC(=O)c1ccc(F)cc1)SC`, the “hERG current change (%, negative = inhibition) at 10uM” value is recorded as -13.8%.

With `O=C(Nc1ccsc1C(=O)O)c1cccc(Oc2ccccc2)c1`, the “hERG current change (%, negative = inhibition) at 10uM” value is recorded as 10.8%.

With `COCCCn1c(SCc2nnc(-c3ccc(OC)c(OC)c3)o2)nc2ccccc2c1=O`, the “hERG current change (%, negative = inhibition) at 10uM” value was -13.5%.

As for `CC(C)[N+](C)(C)CC(O)CN(c1ccccc1)c1ccccc1.[I-]` (stereo not drawn), the “hERG current change (%, negative = inhibition) at 10uM” value is -43.6%.

For `Cc1nn(-c2ccccc2)c(C)c1CCC(=O)O`, the “hERG current change (%, negative = inhibition) at 10uM” value amounted to 6.51%.

As for `O=C(O)c1cccc2c1C(=O)N(CC1CCCO1)C2` (stereo not drawn), the “hERG current change (%, negative = inhibition) at 10uM” value came out at 24.2%.

In the case of `O=C(O)COc1ccccc1/C=C1\SC(=S)N(NC(=O)c2ccccc2O)C1=O`, the “hERG current change (%, negative = inhibition) at 10uM” value turned out to be 16.3%.

For `CN(C)C(=O)c1ccc2c(c1[N+](=O)[O-])C(=O)c1ccccc1C2=O`, the “hERG current change (%, negative = inhibition) at 10uM” value came to 15.1%.

For the molecule `CCOC(=O)c1nn(-c2ccc(C)cc2)cc1O`, the “hERG current change (%, negative = inhibition) at 10uM” value worked out at 15.3%.

Turning to `CN(C)c1ccc(/C=C(\C#N)C(=O)OCC(=O)N(C)C2CCS(=O)(=O)C2)cc1` (stereo not drawn), the “hERG current change (%, negative = inhibition) at 10uM” value stood at 0.323%.

Turning to `Cc1nc2[nH]c(=O)c3c(n2n1)NC1=C(C(=O)CC(C)(C)C1)C3c1ccccc1` (stereo not drawn), the “hERG current change (%, negative = inhibition) at 10uM” value was -22.7%.

`CC1=C(C(=O)OCC2CCCO2)C(c2ccsc2)C2=C(CC(C)(C)CC2=O)N1` (stereo not drawn): the “hERG current change (%, negative = inhibition) at 10uM” value was -19.5%.

As to `CCOC(=O)c1ccc(N2C(=O)C3CC=CCC3C2=O)cc1` (stereo not drawn), the “hERG current change (%, negative = inhibition) at 10uM” value came out at 8.31%.

Take `CCc1ccc(S(=O)(=O)NC2CC(C)(C)NC(C)(C)C2)cc1`: the “hERG current change (%, negative = inhibition) at 10uM” value amounted to 5.09%.

As to `COc1ccc(CNC(=O)CCSCc2ccc(C)cc2)cc1`, the “hERG current change (%, negative = inhibition) at 10uM” value is given as -16.2%.

For `CSC1=NCCN1C(=O)c1ccc2c(c1)OCO2`, the “hERG current change (%, negative = inhibition) at 10uM” value turned out to be 1.2%.

With `CC(C)n1nnnc1SCC(=O)NNC(=O)C1CCCCC1`, the “hERG current change (%, negative = inhibition) at 10uM” value is on record as 4.44%.

As to `O=C1CC2(CCN(C(=O)c3ccccc3F)CC2)Oc2ccccc21`, the “hERG current change (%, negative = inhibition) at 10uM” value is -73.2%.

For the molecule `Cc1ccc(C)c(S(=O)(=O)Nc2ccc(C(=O)N3CCCCC3)cc2)c1`, the “hERG current change (%, negative = inhibition) at 10uM” value worked out at 11%.

Turning to `CC1=C(C(=O)Nc2ccccc2C)C(c2cccs2)NC(=S)N1` (stereo not drawn), the “hERG current change (%, negative = inhibition) at 10uM” value is listed as 23.2%.

Turning to `COc1ccccc1/C=N/NC(=Nc1ccc(C)cc1)c1nc2ccccc2s1`, the “hERG current change (%, negative = inhibition) at 10uM” value was 20%.

Turning to `CC1(C)Cc2ccccc2C(NNC(=O)c2ccccc2)=N1`, the “hERG current change (%, negative = inhibition) at 10uM” value turned out to be 14%.

As to `Cc1ccsc1/C=C(/C#N)C(=O)NCc1ccccc1`, the “hERG current change (%, negative = inhibition) at 10uM” value is given as -10.1%.

For the molecule `OCCCc1nc2ccccc2n1CCOc1ccccc1`, the “hERG current change (%, negative = inhibition) at 10uM” value is on record as -5.7%.

With `CC(Nc1ccnc2cc(Cl)ccc12)c1ccc(S(N)(=O)=O)cc1` (stereo not drawn), the “hERG current change (%, negative = inhibition) at 10uM” value was -26.7%.

On to `Cc1cc(N(CCO)CCO)nc(-n2nc(C)cc2C)n1`, for which the “hERG current change (%, negative = inhibition) at 10uM” value worked out at 0.367%.

With `COC(=O)c1cc(-c2ccc(Cl)cc2)n[nH]1`, the “hERG current change (%, negative = inhibition) at 10uM” value stood at 8.93%.

Regarding `NNC(=O)Cn1c2ccccc2c2ccccc21`, the “hERG current change (%, negative = inhibition) at 10uM” value is -1.74%.

As to `Cc1oc(-c2ccccc2Cl)nc1CS(=O)CC(=O)NCCCN1CC(C)CC(C)C1` (stereo not drawn), the “hERG current change (%, negative = inhibition) at 10uM” value is listed as -15.7%.

`CCCCC(=O)NC(c1ccc(C(C)C)cc1)c1ccc2cccnc2c1O` (stereo not drawn): the “hERG current change (%, negative = inhibition) at 10uM” value is reported as 20%.

For `O=C(NC1CCCCCC1)C1CCN(S(=O)(=O)c2c(Cl)cccc2Cl)CC1`, the “hERG current change (%, negative = inhibition) at 10uM” value was determined as 11.6%.

Turning to `CC(C)(C)NC(=O)C(=O)NC(=O)c1c(F)cccc1Cl`, the “hERG current change (%, negative = inhibition) at 10uM” value worked out at 10.3%.

In the case of `CCCOc1ccc(NC(=O)C2CCCNC2=O)cc1` (stereo not drawn), the “hERG current change (%, negative = inhibition) at 10uM” value is 12.5%.

As to `Cc1cc(Cl)ccc1OCC(=O)Nc1ccccc1NS(=O)(=O)c1cccs1`, the “hERG current change (%, negative = inhibition) at 10uM” value is 2.93%.

As for `Cc1ccc(N2C(=O)C3CCC(C)(C2=O)C3(C)C)cc1` (stereo not drawn), the “hERG current change (%, negative = inhibition) at 10uM” value is recorded as 6.09%.

As to `COc1ccc(NC(=O)c2cccs2)cc1`, the “hERG current change (%, negative = inhibition) at 10uM” value is reported as 13.2%.

Take `CC(=O)c1cccc(NC(=S)N2CCN(S(=O)(=O)c3ccccc3)CC2)c1`: the “hERG current change (%, negative = inhibition) at 10uM” value worked out at 6.6%.

As to `O=C(Nc1ccc(Cl)cn1)c1cccnc1`, the “hERG current change (%, negative = inhibition) at 10uM” value was -8.71%.

As for `Cc1c(Cl)ccc2c(C(=O)NCCCn3nccc3C)cc(-c3ccccn3)nc12`, the “hERG current change (%, negative = inhibition) at 10uM” value was determined as 5.11%.

`Cc1cccc(Oc2ccc(S(=O)(=O)N3CCCCC3)cc2N)c1`: the “hERG current change (%, negative = inhibition) at 10uM” value is reported as -34.6%.

`O=C(C1CN(C(=O)c2cc3cc(Cl)ccc3o2)c2ccccc2O1)N1CCCCC1` (stereo not drawn): the “hERG current change (%, negative = inhibition) at 10uM” value is -29.5%.

For the molecule `CN=C1C([N+](=O)[O-])=CC=C2C1=NC1(CCCCC1)N2O`, the “hERG current change (%, negative = inhibition) at 10uM” value is recorded as -4.59%.

`COc1ccc(OCC(=O)OCC(=O)N2C(C)CCCC2C)cc1` (stereo not drawn): the “hERG current change (%, negative = inhibition) at 10uM” value is on record as 4.15%.

Consider `O=C1c2ccccc2C(=O)c2c1oc(C(F)(F)F)c2C(=O)c1ccccc1`, for which the “hERG current change (%, negative = inhibition) at 10uM” value amounted to 12.9%.

Turning to `COc1cc(C(C)=O)ccc1OCC(O)CN1CCN(c2ccc(C)c(C)c2)CC1` (stereo not drawn), the “hERG current change (%, negative = inhibition) at 10uM” value is -39.6%.

On to `CC(NC(=O)Nc1ccccc1Cl)c1ccc2c(c1)OCO2` (stereo not drawn), for which the “hERG current change (%, negative = inhibition) at 10uM” value is on record as 15.3%.

On to `Cc1sc2ncnc(N3CCC(C(=O)N(C)CC(=O)Nc4ccc(Cl)c(C(F)(F)F)c4)CC3)c2c1C`, for which the “hERG current change (%, negative = inhibition) at 10uM” value was 3.47%.

Take `CCO[C@@H]1OC(C(=O)N2CCN(Cc3ccc4c(c3)OCO4)CC2)=C[C@H](C2CC2)[C@H]1CCCO`: the “hERG current change (%, negative = inhibition) at 10uM” value is listed as -18.7%.

`CSc1nc2ccc(NS(=O)(=O)c3ccc(CNC(C)=O)cc3)cc2s1`: the “hERG current change (%, negative = inhibition) at 10uM” value is recorded as -0.24%.
